Measured values taken from PubChem BioAssay AID1768 (National Center for Advancing Translational Sciences (NCATS), 2009).
Screen size: about 270,000 compounds; about 620 (0.23%) were called active. Inconclusive results, whose numbers are uncertain, are shown with a selection of clear calls. The call rests on the fitted dose curve; in most records, active means well fitted inhibition curve with a large enough effect in the polarisation, with a control signal flat (not every such curve was filed as active); inconclusive means small, poorly fitted or top-dose-only effect, or effect the other way, or a change in a side signal; inactive means no such curve, though single readings can be large or run the other way; the % refers to the polarisation. Where the call is inconclusive, the potency comes from a doubtful curve fit. “Side channel” marks fits to a control or component signal instead of the main read-out.

target: Menin (Homo sapiens) (UniProt O00255); test: qHTS Assay for Inhibitors Targeting the Menin-MLL Interaction in MLL Related Leukemias: Competition With Texas Red Labeled MLL-derived Mutant Peptide; conditions: fluorescence polarization; FP activity change, negative = inhibition: at 61.6 µM (top of the series); on FP activity change, negative = inhibition: % of control where 0% means no effect
UniProt O00255, sequence (O00255 whole entry, looked up): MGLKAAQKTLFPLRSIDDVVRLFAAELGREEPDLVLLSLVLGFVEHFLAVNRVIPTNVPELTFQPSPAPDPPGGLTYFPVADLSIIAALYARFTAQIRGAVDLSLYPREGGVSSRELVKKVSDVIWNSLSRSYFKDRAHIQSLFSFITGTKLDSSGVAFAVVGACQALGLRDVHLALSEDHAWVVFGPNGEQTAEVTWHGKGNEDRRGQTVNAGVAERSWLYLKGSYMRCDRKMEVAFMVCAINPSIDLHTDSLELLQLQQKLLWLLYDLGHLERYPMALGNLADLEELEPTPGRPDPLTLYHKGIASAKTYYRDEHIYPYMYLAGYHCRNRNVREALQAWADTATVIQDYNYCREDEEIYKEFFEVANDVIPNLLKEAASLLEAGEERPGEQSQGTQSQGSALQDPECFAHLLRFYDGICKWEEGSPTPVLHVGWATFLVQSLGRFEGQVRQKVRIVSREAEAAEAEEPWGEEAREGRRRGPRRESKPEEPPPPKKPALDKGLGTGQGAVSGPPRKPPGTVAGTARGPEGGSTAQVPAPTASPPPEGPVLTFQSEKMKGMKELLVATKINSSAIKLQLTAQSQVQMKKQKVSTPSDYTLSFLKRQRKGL
Potency means the concentration at half of the fitted maximal effect; tags describe the fitted curve by direction and shape or compound fluorescence and quenching.

Row | Compound | Potency | FP activity change, negative = inhibition
1 | O=C(COc1cccc(F)c1)N1c2ccccc2Sc2ccccc21 | inactive | –
2 | C/C(=N\Nc1cccc2cccnc12)c1ccccc1O | inconclusive: 15.8 µM [quencher, side channel, partial curve] | –
3 | Oc1ccc(/C=N/Nc2ccc3ccccc3c2)c(O)c1 | inconclusive: 11.2 µM [quencher, side channel, partial curve] | –
4 | Cc1c(N2C(=O)c3ccc4c5c(ccc(c35)C2=O)CC4)c(=O)n(-c2ccccc2)n1C | inconclusive: 12.6 µM [quencher, side channel, partial curve] | –
5 | COc1ccc(Cn2nnnc2C(c2cc3cccc(C)c3[nH]c2=O)N2CCOCC2)cc1 (stereo not drawn) | inactive | –
6 | Cc1ccc(CNCCCSc2nc(C)cc(C)n2)cc1 | inconclusive: 3.55 µM [fluorescent, side channel, partial curve] | –
7 | O=C(N/C=C/c1ccccc1)Nc1ccc(Cl)cc1 | inconclusive: 25.1 µM [quencher, side channel, partial curve] | –
8 | COc1cccc(C(=O)Nc2ccc(C(=O)c3ccccc3)cc2)c1 | inconclusive: 20 µM [quencher, side channel, single point] | –
9 | CC(/C=N/Nc1nc(N2CCCCC2)nc(N2CCCCC2)n1)=C\c1ccccc1 | inconclusive: 1.58 µM [inhibitor, full curve, poor fit] | –
10 | Cc1ccc(C(=O)Nc2nnc(S(=O)(=O)N3CCCCCC3)s2)cc1 | inconclusive: 10 µM [quencher, side channel, partial curve] | –
11 | Cc1c(CCO)c(=O)n(-c2ccccc2)n1S(=O)(=O)c1c(Cl)cc(Cl)cc1Cl | inconclusive: 2.51 µM [inhibitor, partial curve, poor fit] | –
12 | COc1ccc(OC)c(-c2csc(-c3cccs3)n2)c1 | inconclusive: 28.2 µM [quencher, side channel, single point] | –
13 | Cc1onc(-c2ccccc2Cl)c1C(=O)N1CCN(c2nc3ccccc3s2)CC1 | inconclusive: 3.16 µM [fluorescent, side channel, full curve, poor fit] | –
14 | COCCNC(=O)c1ccc2c(c1)ncn2-c1ccc(C)c(Cl)c1 | inconclusive: 0.631 µM [quencher, side channel, full curve, poor fit] | –
15 | O=C(CSc1nc2cc3ccccc3cc2[nH]1)Nc1ccc(F)cc1 | inconclusive: 39.8 µM [inhibitor, single point] | –
16 | COCCNC(=S)N(CCc1c(C)[nH]c2ccc(F)cc12)Cc1cccs1 | inconclusive: 10 µM [quencher, side channel, partial curve] | –
17 | Cc1ccc(/C=C(\C#N)c2nc3ccccc3[nH]2)s1 | inconclusive: 12.6 µM [quencher, side channel, partial curve] | –
18 | O=C(CSc1cccc2cccc(Cl)c12)NC1=NCCS1 | inconclusive: 35.5 µM [quencher, side channel, single point] | –
19 | O=C(CN1CCC(n2nnc3ccccc32)CC1)Nc1ccc2c(c1)CCC2 | inactive | –

Row | Compound | Potency | FP activity change, negative = inhibition
20 | COc1ccc(CS(=O)(=O)CC(C)(O)c2ccc(Cl)cc2)cc1 (stereo not drawn) | inconclusive: 20 µM [inhibitor, partial curve] | –
21 | Cc1oc(-c2cccc(Cl)c2)nc1CN1CCC(C(=O)N2CCN(c3ccccc3F)CC2)CC1 | inconclusive: 2.24 µM [fluorescent, side channel, full curve] | –
22 | C#CCCCO/N=C1/C[C@@H](O)[C@@H](O)[C@@H]2[C@@H]3C(=O)N(C4CCCCC4)C(=O)[C@H]3CC[C@H]12 | – | inactive: 1.79% [at 11.7 µM]
23 | COc1ccc(NS(=O)(=O)c2cc(C)ccc2C)cc1 | inactive | –
24 | CC(C)(C)/C(O)=C/c1nc2ccccc2[nH]c1=O | inactive | –
25 | CCN(CC(=O)NCc1ccc(F)cc1)C(=O)CN1CCN(c2cc(Cl)ccc2C)CC1 | inconclusive: 39.8 µM [fluorescent, side channel, single point] | –
26 | OCC[n+]1ccc(/C=C/c2c[nH]c3ccccc23)cc1 | inactive | –
27 | CCC(Oc1ccccc1)C(=O)Nc1ccccc1N1CCCC1 (stereo not drawn) | inconclusive: 11.2 µM [fluorescent, side channel, partial curve] | –
28 | COC(=O)CCCCC1SCC2NC(=O)NC21O (stereo not drawn) | inactive | –
29 | CCc1ccc(NC(=O)CCn2c(=O)oc3ccccc32)cc1 | inconclusive: 20 µM [fluorescent, side channel, partial curve] | –
30 | NS(=O)(=O)c1cccc(NS(=O)(=O)c2ccc(/C=C/C(=O)OCC(=O)c3ccc(Br)cc3)cc2)c1 | active: 28.2 µM | –
31 | Cc1cccc2sc(NNC(=O)c3cc(-c4cccs4)nc4ccccc34)nc12 | inconclusive: 31.6 µM [quencher, side channel, partial curve] | –
32 | CCn1c(=O)c(C(=O)NNC(=O)c2cccc(Cl)c2)c(O)c2ccccc21 | inconclusive: 28.2 µM [quencher, side channel, single point] | –
33 | CCCCN=C1CC(C)(C)CC(=O)/C1=C(/O)CCCN1C(=O)c2ccccc2C1=O | inconclusive: 2.82 µM [fluorescent, side channel, full curve, poor fit] | –
34 | Clc1ccc(CSc2nnc(CN3CCOCC3)n2-c2ccccc2)cc1Cl | inconclusive: 7.08 µM [fluorescent, side channel, full curve, poor fit] | –
35 | COc1ccc(NC(=O)C(=O)Nc2cccc3ccccc23)c(OC)c1 | inconclusive: 39.8 µM [fluorescent, single point] | –
36 | CCCN1C(=O)/C(=C\C=C2/Sc3ccccc3N2CC)SC1=S | inconclusive: 3.16 µM [fluorescent, side channel, full curve] | –
37 | CC1CCN(c2nc(-c3ccncc3)nc3ccccc23)CC1 | inconclusive: 15.8 µM [fluorescent, side channel, partial curve, poor fit] | –
38 | COC(=O)c1cc(OC)c(OC)cc1NC(=O)Cc1cccs1 | inconclusive: 1.58 µM [fluorescent, side channel, full curve, poor fit] | –
